Out of some 360,000 compounds screened, about 2,600 (0.72%) were called active. Inconclusive results, whose numbers are uncertain, are shown with a selection of clear calls. Calls follow the shape of the dose curve; as a rule, active = well fitted inhibition curve with a large enough effect; inconclusive = small, poorly fitted or top-dose-only effect; inactive = no such curve, though single readings can be large or run the other way. Where the call is inconclusive, the potency comes from a doubtful curve fit.
Assay: Primary qHTS for Inhibitors of ATXN expression; also: nearly all actives have a fitted effect of over 55% in size
Details: HEK-293 ATXN2-luciferase reporter, luminescence, 24 h; series mostly up to 57 µM
Outline: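 qHTS (up to 57 uM final) was run with 24 h compound exposure of reporter cells at 37 °C. Each well was multiplexed: SteadyGlo luminescence measured ATXN2-luciferase expression after a fluorogenic Gly-Phe-AFC viability readout (25 uM final).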
Potency is read from the fitted curve at half-maximal effect; tags tell the direction and shape of the fitted curve.

Compound | Potency
Cn1c(=O)c2cc(NC(=O)Nc3cccnc3)ccc2n1Cc1ccc(Cl)cc1 | inconclusive: 28.2 µM [inhibitor, single point]
O=[N+]([O-])c1ccc(O)c(/C=N/NC2=NS(=O)(=O)c3ccccc32)c1 | inconclusive: 14.1 µM [inhibitor, partial curve, poor fit]
S=c1[nH]nc(-c2cc(-c3ccsc3)n[nH]2)n1-c1cccc2ccccc12 | inconclusive: 22.4 µM [inhibitor, partial curve]
COc1cccc(C(=O)CN2C3=NCCCN3c3ccccc32)c1 | inconclusive: 31.6 µM [inhibitor, partial curve, poor fit]
CCCN1C2CCCC1CC(NC(=O)c1ccccc1OC)C2 (centres undefined) | inactive
O=C(O)c1ccc2c3c(ncnc13)-c1ccccc1C2=O | inconclusive: 15.8 µM [inhibitor, partial curve]
CCC(=O)Nc1nonc1-c1nc2ccccc2n1CCC(C)C | inactive
O=C(NC1CCCCC1)N1CCC(c2nc(-c3ccc(S(=O)(=O)N4CCCC4)cc3)no2)CC1 | inconclusive: 20 µM [inhibitor, partial curve, poor fit]
Cc1ccc2nc(-c3ccc(NC(=O)CCS(=O)(=O)c4ccccc4)cc3)sc2c1 | inactive
Cc1cc(C)nc(/N=c2/ssnc2Cl)c1 | inconclusive: 15.8 µM [inhibitor, partial curve, poor fit]
C/C(=N\NC(=O)c1ccc(NS(=O)(=O)c2cccs2)cc1)c1ccccn1 | inconclusive: 11.2 µM [inhibitor, partial curve]
Nc1c(C(=O)c2ccccc2)sc2nsc(SCCN3CCCC3)c12 | inconclusive: 39.8 µM [inhibitor, single point]
O=C(CCCN1C(=O)[C@H]2CC=CC[C@H]2C1=O)NCc1nc(-c2ccc(Cl)cc2)no1 | inconclusive: 22.4 µM [inhibitor, partial curve, poor fit]
O=S(=O)(Cc1cc(Cl)nc(-c2ccccc2)n1)c1ccccc1 | active: 31.6 µM
O=C(Nc1cccc(C(F)(F)F)c1)Nc1ccc2snnc2c1 | inconclusive: 5.62 µM [inhibitor, full curve]
O=C(NCc1ccc(OC(F)(F)F)cc1)c1cc(-c2ccccc2)nn1CC1CC(c2cccnc2)=NO1 (centres undefined) | inactive
O=c1cc(-c2ccc(F)cc2)oc2ccccc12 | inactive
COc1ccccc1N1CCN(c2nc(C)nc3c2oc2ccccc23)CC1 | active: 35.5 µM
COCCNC(=S)Nc1cccc2cnccc12 | inconclusive: 3.16 µM [inhibitor, partial curve, poor fit]
CCCCOc1cccc(C(=O)N2CCN(CCc3ccncc3)CC2)c1 | inactive
COCCNC(=O)c1ccc2c(c1)S(=O)(=O)c1cc(Cl)ccc1C2=O | inconclusive: 25.1 µM [inhibitor, partial curve, poor fit]
C=C[C@@H]1CN2CCC1C[C@H]2[C@H](O)c1ccnc2ccc(OC)cc12 (some centres undefined) | inconclusive: 30.6 µM [inhibitor, partial curve, poor fit]

Compound | Potency
COc1ccc(S(=O)(=O)N2c3ccccc3OCC2c2ccccc2)cc1 (centres undefined) | inconclusive: 3.55 µM [inhibitor, partial curve, poor fit]
Oc1ccc(CCNc2c3ccccc3nc3ccccc23)cc1O | inconclusive: 15.8 µM [inhibitor, single point]
Cc1ccc(/C=N/Nc2ccnc3cc(Cl)ccc23)c(C)c1 | active: 35.5 µM
CCOC(=O)N1CCN(S(=O)(=O)c2ccc(C(=O)N(CCCN(C)C)c3nc4ccc(Cl)cc4s3)cc2)CC1 | inconclusive: 39.8 µM [inhibitor, single point]
CCN(CC)C(=O)[C@H]1C[C@H](CC(=O)NC/C=C(\C)CCC=C(C)C)C(=O)N2CCc3c([nH]c4cc(-c5ccco5)ccc34)[C@]12C | inconclusive: 35.5 µM [inhibitor, single point]
C=CC[C@@H]1C=C(C)C[C@H](C)C[C@H](OC)[C@H]2O[C@@](O)(C(=O)C(=O)N3CCCC[C@H]3C(=O)O[C@H](C(C)=C[C@@H]3CC[C@H](O)[C@H](OC)C3)[C@@H](C)[C@@H](O)CC1=O)[C@@H](C)C[C@@H]2OC | inconclusive: 15.3 µM [inhibitor, single point]
O=C(Nc1ccc2c(c1)OCO2)N1CCN(Cc2ccco2)CC1 | inconclusive: 37.7 µM [inhibitor, single point]
CCOC(=O)c1ccccc1NC(=O)Cn1ccn2nc(-c3ccc(OCC)cc3)cc2c1=O | inactive
Cc1ccc(Nc2cc(C)nn2-c2nc(C)cc(=O)[nH]2)cc1 | active: 1.12 µM
CCC1CN2CCc3cc(OC)c(OC)cc3C2CC1CC1c2cc(OC)c(OC)cc2CCN1C(=O)C(Cc1c[nH]c2ccccc12)NC(=O)OC(C)(C)C (centres undefined) | inconclusive: 39.8 µM [inhibitor, single point]
Cc1ccc(CNC(=O)C2CCCN(c3ncnc4onc(-c5ccc(F)cc5)c34)C2)cc1 (centres undefined) | inactive
O=C(CCl)NC1CCCc2ccccc21 (centres undefined) | inactive
Cc1ccc(OCCn2cc(/C=N/NC(=O)c3ccncc3)c3ccccc32)cc1 | inconclusive: 37.7 µM [inhibitor, single point]
Cc1ccc(NC(=O)COc2ccc(-c3nnco3)cc2)cc1S(=O)(=O)N1CCOCC1 | inactive
Cc1ccc([N+](=O)[O-])cc1N=Nc1c(-c2ccc([N+](=O)[O-])cc2)[nH]n(C(N)=S)c1=O | inconclusive: 16.8 µM [inhibitor, partial curve, poor fit]
C[C@@H]1CN([C@@H](C)CO)C(=O)c2cc(Br)cnc2O[C@H]1CN(C)C(=O)NC1CCCC1 | inactive
Clc1ccc2nc(-c3cccc(SC4CCCCC4)c3)c(NCc3ccccc3)n2c1 | inactive
Cc1[nH]c2ccccc2c1Cc1nnc(SCc2ccccc2)o1 | inactive
O=C(CSc1nc2ccccc2c(=O)[nH]1)Nc1nc(-c2ccc(Br)cc2)cs1 | inconclusive: 25.1 µM [inhibitor, single point]
O=C(OCC(F)(F)F)c1cccc(COc2ccc3ccccc3c2)c1 | active: 2 µM
O=C(/C=C/c1ccc([N+](=O)[O-])o1)NNC(=O)c1ccc(F)cc1 | active: 6.31 µM
CC(=O)[C@@]1(O)Cc2c(O)c3c(c(O)c2[C@H](O[C@H]2C[C@H](N)[C@H](O)[C@H](C)O2)C1)C(=O)c1ccccc1C3=O | inactive

Compound | Potency
Cc1cnc(C(=O)NNC(=O)c2ccc(Br)cc2)cn1 | inconclusive: 20 µM [inhibitor, single point]
CC(=O)c1ccc(NC2=C(N3CCOCC3)C(=O)c3ccccc3C2=O)cc1 | inconclusive: 39.8 µM [inhibitor, single point]
Nc1[nH]c(C(=O)c2ccccc2)c(-c2ccc(Cl)c(F)c2)c1C(=O)NCCc1c[nH]c2ccccc12 | inconclusive: 39.8 µM [inhibitor, single point]
C=CC[C@@H](Cc1ccc(F)cc1)C(=O)OC[C@@H]1CCCN1C(=O)[C@H](CC=C)CC(=O)N(CCO)Cc1ccccc1 | inconclusive: 39.8 µM [inhibitor, single point]
O=C(NCCc1ccccc1)c1ccc2c(c1)OCCCO2 | active: 0.708 µM
COc1ccc(-c2cc3nc4c(c(N5CCC6(CC5)OCCO6)n3n2)CCC4)cc1 | inactive
COc1ccc(CC(N)c2csc(NC(=O)Nc3ccccc3C(C)C)n2)cc1 (centres undefined) | inconclusive: 35.5 µM [inhibitor, single point]
CCOC(=O)C1=C(C2=CCCCC2)c2ccc(OC)cc2N(S(=O)(=O)C(F)(F)F)C1C(=O)OCC (centres undefined) | inconclusive: 31.6 µM [inhibitor, partial curve, poor fit]
Cc1ccc(OCCn2cc(/C(N)=N/O)c3ccccc32)cc1C | inconclusive: 17.8 µM [inhibitor, partial curve, poor fit]
CSCCC(c1nnnn1C(C)(C)C)N1CCN(C/C=C/c2ccccc2)CC1 (centres undefined) | inactive
C=Cc1ccc(Cn2c(=O)n(-c3cccc(Cl)c3)c(=O)c3c4c(sc32)CN(C(C)=O)CC4)cc1 | inconclusive: 31.6 µM [inhibitor, partial curve, poor fit]
Cc1cc(/C=C2/SC(=S)N(c3ccc([N+](=O)[O-])cc3)C2=O)c(C)n1-c1cccnc1 | inconclusive: 0.891 µM [inhibitor, full curve]
CCCc1cc(-c2nc(N)ncc2-c2ccc3c(c2)OCCCO3)c(O)cc1OC | inconclusive: 39.8 µM [inhibitor, single point]
O=C(NCCc1ccc(Cl)cc1)c1ccc2c(c1)N(Cc1ccc(Cl)cc1)C(=O)CS2 | inconclusive: 35.5 µM [inhibitor, single point]
COc1cccc(/C=C2/CCC(CN(C)C)C2=O)c1 (centres undefined) | active: 13.4 µM
Cc1ccnc(NC(=O)Cc2ccc(-c3ccccc3)cc2)c1 | inconclusive: 5.62 µM [inhibitor, partial curve]
CC(C)Cc1nc2oc3c(N4CCN(CCO)CC4)ncnc3c2c2c1CCCC2 | inconclusive: 39.8 µM [inhibitor, partial curve, poor fit]
CCOC(=O)COc1ccc2ccccc2c1/C=C/[N+](=O)[O-] | inconclusive: 3.16 µM [inhibitor, full curve]
Cc1nc2ccc(NC(=O)c3ccc(S(=O)(=O)N(C)c4ccccc4)cc3)cc2s1 | active: 29.9 µM
Cc1ccc(Cn2nnc3c(=O)[nH]c(C4CCN(S(=O)(=O)c5ccccc5F)CC4)nc32)cc1 | inconclusive: 1.26 µM [inhibitor, partial curve, poor fit]

— PubChem BioAssay AID1745845 (National Center for Advancing Translational Sciences (NCATS), 2022)
